The record followed here is PubChem BioAssay AID493035 (The Scripps Research Institute Molecular Screening Center, 2011).

Structures are written as SMILES. The whole screen tested about 2,000 compounds, of which about 45 (2%) were called active.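 How the source made its calls: active means inhibition above the mean of all tested compounds plus 3 SD (cut at about 49% in these data); inactive means the rest.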 The list shows a part of the results.

The experiment deals with Perilipin-5 (Homo sapiens) + 1-acylglycerol-3-phosphate O-acyltransferase ABHD5 (Homo sapiens) (UniProt Q00G26+Q8WTS1). In words: blockers of ABHD5 binding to perilipin-5 – cell lysate, split luciferase complementation, luminescence, NIH validation set, pilot screen (AID 493035).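 Further: 0% = DMSO only wells while the 100% control is not stated.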 The note with it: split G. princeps luciferase complementation, lysates, 4 h; at 7.9 µM, stronger effect = higher value.
UniProt Q00G26, sequence (Q00G26 whole entry, looked up): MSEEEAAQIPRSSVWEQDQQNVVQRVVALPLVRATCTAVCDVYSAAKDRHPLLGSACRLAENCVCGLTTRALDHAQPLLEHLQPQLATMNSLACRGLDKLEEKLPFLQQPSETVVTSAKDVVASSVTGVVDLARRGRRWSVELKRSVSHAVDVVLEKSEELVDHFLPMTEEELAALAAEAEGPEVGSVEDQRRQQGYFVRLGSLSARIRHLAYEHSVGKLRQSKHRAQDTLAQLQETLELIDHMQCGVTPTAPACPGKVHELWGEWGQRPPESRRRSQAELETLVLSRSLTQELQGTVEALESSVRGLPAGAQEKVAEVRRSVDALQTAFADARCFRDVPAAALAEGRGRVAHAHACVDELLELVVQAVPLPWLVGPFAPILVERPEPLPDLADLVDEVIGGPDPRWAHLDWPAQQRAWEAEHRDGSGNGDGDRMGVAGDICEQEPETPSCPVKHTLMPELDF
UniProt Q00G26, sequence (Q8WTS1 whole entry, looked up): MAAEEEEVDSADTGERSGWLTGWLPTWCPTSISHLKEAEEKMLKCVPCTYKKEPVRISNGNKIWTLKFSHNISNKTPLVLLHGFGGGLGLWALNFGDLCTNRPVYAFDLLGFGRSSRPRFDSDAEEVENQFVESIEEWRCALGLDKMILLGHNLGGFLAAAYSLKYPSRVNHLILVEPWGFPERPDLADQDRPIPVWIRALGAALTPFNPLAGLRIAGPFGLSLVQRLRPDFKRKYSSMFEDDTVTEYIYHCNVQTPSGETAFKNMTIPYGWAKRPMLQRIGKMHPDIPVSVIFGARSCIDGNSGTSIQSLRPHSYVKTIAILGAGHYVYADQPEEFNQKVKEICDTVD
What is called inhibition is the drop in the measured response relative to a control, in per cent. On to `CCN1CCn2c3c(c4cc(Cl)ccc42)CCCC31` (configuration not stated), for which the inhibition is inactive: -6.29%.

On to `COc1cc(OC)c(C(=O)CCCN2CCCC2)c(OC)c1`, for which the inhibition was inactive: -2.15%. As for `CCOC(=O)NN1C(=O)c2ccccc2NC1c1ccc(OC)c(OC)c1` (configuration not stated), the figure is inactive: -2.95%; as for `Cc1ccc2c(CC(=O)O)coc2c1`, inactive: -6.46%. For the compound `COc1cc2c(cc1OC)-c1cc(OCc3ccccc3Cl)nc(=O)n1CC2`, the inhibition is inactive: 13.2%. As to `COc1ccccc1N1CCN(CC(O)COc2cccc3ccccc23)CC1` (configuration not stated), the inhibition was inactive: -14.1%. `COc1ccc(NC(=S)N2CCN(CCN3C(=O)c4cccc5cccc(c45)C3=O)CC2)cc1`: the inhibition is inactive: 11.9%. As for `CN1CCC(=C2c3ccccc3CC(=O)c3sccc32)CC1`, the figure is inactive: 0.17%. Take `OC(CCCN1CCC(O)(c2ccc(Cl)cc2)CC1)c1ccc(F)cc1` (configuration not stated): the inhibition was inactive: -4.39%. The same measure for `COC(=O)c1cc(-c2c(C)oc3cc(OC)ccc3c2=O)c(C)o1`: inactive: -4.02%; for `O=C1CCCC(=O)C1=Cc1c[nH]c2ccccc12`: inactive: -1.77%. The same measure for `CC(=O)O[C@H]1CSC[C@H]1NC(=O)c1ccccc1`: inactive: -9.72%; for `C=C(C)c1nc2cc(OC)c(OC)cc2c(=O)o1`: inactive: -8.54%; for `CC1=C/C(=N\N=C2\NC(=O)C(CC(=O)Nc3ccccc3F)S2)CC(C)(C)C1` (configuration not stated): inactive: -1.54%. The same measure for `COc1ccc(C(=O)Nc2ncc3c(n2)CC(C)CC3=O)cc1` (configuration not stated): inactive: -2.67%; for `CC(C)(S)[C@@H](N)C(=O)O`: inactive: 1.85%; for `CC(=O)Oc1ccc2c(=O)c(Oc3ccccc3[N+](=O)[O-])coc2c1`: inactive: 3.75%. `Cc1cc(C)cc(Nc2nc3c([nH]2)c(=O)n(C)c(=O)n3C)c1`: the inhibition was inactive: -2.83%. Take `CN1CCCN=C1COC(=O)C(O)(c1ccccc1)C1CCCCC1` (configuration not stated): the inhibition was inactive: -1.95%. The same measure for `CC(C)(C)C(=O)NCCCNc1ccc([N+](=O)[O-])cc1`: inactive: -3.12%.

As to `C[C@H](NC(=O)NCCc1ccccc1)C(=O)O`, the inhibition was inactive: -1.56%.

For `O=Cc1ccc(O)c(O)c1`, the inhibition was inactive: 1.43%. The same measure for `COc1ccc(-c2cc(=O)oc3c(C)c(O)c(CN(C)C)cc23)cc1`: inactive: -3.13%. As for `COC(=O)c1[nH]c2ccccc2c1NC(=O)CN1CCN(C/C=C/c2ccccc2)CC1`, the inhibition was inactive: 4.25%. As for `Cc1c(O)c(=O)ccn1C`, the figure is inactive: -1.86%; as for `CCC(=O)O[C@]1(C(=O)CCl)[C@@H](C)C[C@H]2[C@@H]3CCC4=CC(=O)C=C[C@]4(C)[C@@]3(F)[C@@H](O)C[C@@]21C`, inactive: -10.2%. Turning to `Cc1ccc(C(=O)N2CC3(C(C)C)CN(C(=O)c4ccc(C)cc4)CC(C(C)C)(C2)C3=O)cc1`, the inhibition is inactive: -13.4%. As for `CCOc1cccc(N2C(=O)CC(N(CCc3ccc(OC)c(OC)c3)C(=O)CC)C2=O)c1` (configuration not stated), the figure is inactive: -6.64%. As for `CN(C)CC/C=C1\c2ccccc2Sc2ccc(Cl)cc21`, the figure is inactive: -9.08%. As for `CCN(CCCCCN(C)C)Cc1cc2ccccc2o1`, the figure is inactive: -4.57%; as for `COc1ccc(CCN(C)CC(=O)Nc2cc(C)nc3ccccc23)cc1OC`, inactive: 5.63%. Consider `O=C1OCCN1/N=C/c1ccc([N+](=O)[O-])o1`, for which the inhibition is inactive: 3.06%.

For the compound `COc1ccc(NC2=C(Cl)C(=O)N(c3ccccc3)C2=O)c(OC)c1`, the inhibition is inactive: -1.12%.

For `COc1ccc(NC(=O)C2CSC3c4ccccc4C(=O)N23)cc1` (configuration not stated), the inhibition was inactive: 4.85%.

As to `COc1ccc(-c2noc(-c3ccccc3-c3ccccc3)n2)cc1`, the inhibition is inactive: 7.56%. The same measure for `COC(=O)c1[nH]c2ccc(C)cc2c1NC(=O)CN1CCc2cc(OC)c(OC)cc2C1`: inactive: 0.77%; for `COc1ccc(-c2[nH]ncc2C=O)cc1OC`: inactive: 2.87%. Consider `O=C(Nc1ncc2c(n1)CC(c1ccco1)CC2=O)c1ccco1` (configuration not stated), for which the inhibition is inactive: 0.31%. `COc1cccc2c(=O)c(C/C=C(/C)Cl)c(C)[nH]c12`: the inhibition was inactive: -0.4%.

For `COc1ccc(C2CNC(=O)C2)cc1OC1CCCC1` (configuration not stated), the inhibition was inactive: -5.17%. As for `CC(C)c1ccc(/C=C/C(=O)O)cc1`, the figure is inactive: -8.41%. As for `N#Cc1c2c(c(-c3ccccc3)[nH]c1=O)CCCC2`, the figure is inactive: 5.3%. As for `Cc1nc(-c2coc3c(CN(C)C)c(O)ccc3c2=O)cs1`, the figure is inactive: 2.55%; as for `C[C@H]1C[C@@H]2[C@H]([C@@H](O)C[C@@]3(C)[C@H]2CC[C@]3(O)C(=O)CO)[C@@]2(C)C=CC(=O)C=C12`, inactive: -2.75%. Regarding `O=C1[C@@H]2[C@H](Cc3ccc(O)cc3)N[C@]3(C(=O)Nc4ccccc43)[C@@H]2C(=O)N1c1ccc(F)cc1`, the inhibition is inactive: -3.2%. Consider `CCOC(=O)N1CCN(Cc2nc(Cc3cccc(F)c3)no2)CC1`, for which the inhibition was inactive: -6.6%. Consider `COc1ccc(NC(=O)Nc2ccc(C(C)C)cc2)cc1`, for which the inhibition was inactive: -3.33%. The same measure for `CC12CCC(C(=O)NCc3ccccn3)(OC1=O)C2(C)C` (configuration not stated): inactive: -8.39%.

As for `COc1cccc(NC(=O)C2CC(=O)OC23CCOC(C)(C)C3)c1` (configuration not stated), the inhibition is inactive: 0.34%. As for `COC(=O)c1ccc(-c2ncc(-c3cccc4ccccc34)o2)cc1`, the figure is inactive: 1.49%; as for `CCCNCC(O)COc1ccccc1C(=O)CCc1ccccc1` (configuration not stated), inactive: -2.08%; as for `O=C(Nc1ccccc1C(=O)N1CCCCCC1)c1ccccc1Cl`, inactive: -1.51%. The same measure for `CN1CCc2c(n(CC(O)CN(CCO)CCO)c3ccccc23)C1=O` (configuration not stated): inactive: -4.52%.

For `O=[N+]([O-])c1cccc2cn[nH]c12`, the inhibition was inactive: -7.71%. The same measure for `Cc1ccc2nc(C)c3c(c2c1)OC(C(C)(Cl)Br)C3` (configuration not stated): inactive: -11.2%; for `CN(C)c1nc(N(C)C)nc(N(C)C)n1`: inactive: -7.99%.

For `O=C(CCc1c[nH]c2ccccc12)NCc1ccco1`, the inhibition is inactive: 6.8%. With `COC(=O)CSc1nc2ccc(N)cc2s1`, the inhibition is inactive: -6.18%.

On to `Nc1ccc2[nH]ncc2c1`, for which the inhibition was inactive: -5.44%. The same measure for `NNC(=O)c1cc(O)c(O)c(O)c1`: inactive: -2.61%. As for `Cc1ccc(S(=O)(=O)N2CCC(C(=O)N[C@@H](C)C(=O)NC3CCS(=O)(=O)C3)CC2)cc1` (some centres not stated), the figure is inactive: -6.13%; as for `O=C(O)c1cc(-c2ccccc2)nc2ccccc12`, inactive: -2.12%; as for `CC(=O)O[C@]1(C(C)=O)CC[C@H]2[C@@H]3C[C@H](C)C4=CC(=O)CC[C@]4(C)[C@H]3CC[C@@]21C`, inactive: 0.64%. On to `Oc1ccccc1OCCOc1ccccc1OCCOc1ccccc1O`, for which the inhibition is inactive: -3.79%.

Turning to `CCOCC(=O)Nc1nc2ccccc2s1`, the inhibition was inactive: -2.55%. As for `O=c1[nH]c(=O)n(C2CCCO2)cc1F` (configuration not stated), the figure is inactive: 4.06%.

For `CC(NCCC(c1ccccc1)c1ccccc1)c1ccccc1` (configuration not stated), the inhibition was inactive: -3.07%. As for `CC(C)c1ccccc1OCCNC(=S)NC(=O)c1cccnc1`, the figure is inactive: 3.5%. `CCOC(=O)C1C(=O)CC(C)(O)C(C(=O)OCC)C1/C=C/c1ccccc1` (configuration not stated): the inhibition is inactive: -7.86%. As for `CCc1cn([C@H]2C[C@H](O)[C@@H](CO)O2)c(=O)[nH]c1=O`, the figure is inactive: 5.96%; as for `CSCCC(NC(=O)/C(=C/c1ccc2c(c1)OCO2)NC(=O)c1cccc([N+](=O)[O-])c1)C(=O)O` (configuration not stated), inactive: 5.37%.

As for `CC(C)c1ccc(NC(=O)CNS(=O)(=O)c2ccc(F)cc2)cc1`, the inhibition is inactive: 1.38%. As for `CC1(C)CC(NC(=O)C23CCC(C)(C(=O)C2=O)C3(C)C)CC(C)(C)N1` (configuration not stated), the figure is inactive: -7.41%.

As for `N=c1c[n+](N2CCOCC2)[n-]o1`, the inhibition was inactive: -3.09%. In the case of `CN1CCN(CCCN2c3ccccc3Sc3ccc(Cl)cc32)CC1`, the inhibition was inactive: -9.46%. As to `CC(C)CC(=O)OC1C(N2CCOCC2)c2c(ccc(/C=C/C(=O)N3CCOCC3)c2O)OC1(C)C` (configuration not stated), the inhibition was inactive: -5.11%. The same measure for `Nc1cccc2c1nnn2C1OC(CO)C(O)C(O)C1O` (configuration not stated): inactive: -6.06%; for `Cc1ccccc1C(=O)Oc1ccc(Sc2ccc(O)cc2)cc1`: inactive: -0.58%. The same measure for `CCN(CC)C1=C(Cl)C(=O)C(Cl)C12OCCO2` (configuration not stated): inactive: -9.64%; for `O=C(NCCN1CCCCC1)c1c(O)c2ccccc2[nH]c1=O`: inactive: -5.34%. The same measure for `Cc1ccc(N2CCN(C(=S)c3ccc(-c4cccc([N+](=O)[O-])c4)o3)CC2)cc1`: inactive: 16.9%; for `COc1ccc(-c2cc(=Nc3ccc(C)cc3)c3ccccc3o2)cc1`: inactive: 9.1%; for `Cc1ccc(C(=O)NC(=S)NCCCN2CCOCC2)cc1`: inactive: 5.17%. On to `CSc1cccc(NC(=O)/C=C/c2ccccc2)c1`, for which the inhibition is inactive: -2.89%.

For `COc1c2occc2c(OC)c2c(=O)cc(C)oc12`, the inhibition is inactive: -1.87%. Consider `COc1ccc(CCN(C)CCCC(C#N)(c2cc(OC)c(OC)c(OC)c2)C(C)C)cc1OC` (configuration not stated), for which the inhibition was inactive: -14%. As for `O=C(O)C(O)c1ccccc1` (configuration not stated), the figure is inactive: -5.79%. As for `COc1ccc(-c2coc3cc(OC(=O)N4CCOCC4)ccc3c2=O)cc1`, the figure is inactive: -5.03%.

As to `CC(C)(C)C(=O)N1CCCC1C(=O)O` (configuration not stated), the inhibition is inactive: -7.48%. For `COc1cccc2c1OCC1COc3c(c(=O)n(C)c(=O)n3C)C21` (configuration not stated), the inhibition was inactive: 8.11%. As for `CCCOc1ccc(-c2cc(C(=O)NCC3CCCO3)c3ccccc3n2)cc1` (configuration not stated), the figure is inactive: -0.81%. The same measure for `O=C(NCCc1c[nH]c2ccccc12)c1cccnc1`: inactive: 3.21%; for `CC(=O)OCC(OC(C)=O)C(OC(C)=O)C(OC(C)=O)C(=O)Nc1cccc(C)c1` (configuration not stated): inactive: -4.11%; for `CC1CC(OC(=O)C(O)c2ccccc2)CC(C)(C)N1C` (configuration not stated): inactive: 3.73%. For `Cc1nnc(NS(=O)(=O)c2ccc(N)cc2)s1`, the inhibition was inactive: -2.03%. As for `CCN1CCN(c2cc3c(cc2F)c(=O)c(C(=O)O)cn3C2CC2)CC1`, the figure is inactive: -15.4%; as for `CC(C)N1C(=O)/C(=C\c2nc3ccccc3c(=O)[nH]2)c2ccccc21`, active: 64.9%.
